# Assay results from patent publication US12048742B2, “Hepatitis C virus peptide compositions and methods of use thereof” (The Governors of the University of Alberta, priority 2018, dated 2024).
# Where “and” joins values, the source holds several entries; their conditions need not be identical. Identical values can stand only once. Part of at least one peptide drawing is inferred or uncertain, most often the ends. No end group written: not given here.
# Tests used:
# FIG. 6 = assay: FIG. 6
# Description: Table printed on a drawing sheet, FIG. 6
# The patent's description of the figure: FIG. 6 provides the solubility of various T-cell epitope polypeptides in an aqueous buffer. TP35-NS3: SEQ ID NO:133; TP35-NS3(Lys)3: SEQ ID NO:302; TP42: SEQ ID NO:228; TP45 (C-terminal CNV replaced with KKK): SEQ ID NO:248; TP48: SEQ ID NO:254; TP48(Lys)3: SEQ ID NO:257; and TP50-C: SEQ ID NO:148.
# First reader's note: Blanks inside the sequences only mark line breaks within the printed cell.
# [1] = Solubility of T-cell epitope polypeptides in E1E2 buffer (Protocol 1); assay type: physicochemical; details: Protocol 1, 1 mg peptide per ml E1E2 buffer, after vortexing and centrifugation at 10,000×g
# Experimental: For example, the peptides TP35-NS3 and TP50C are soluble in E1E2 buffer at a concentration of at least 1 mg/ml. The peptides TP35-NS3 and TP50C are soluble in E1E2 buffer at a concentration of at least 1 mg/ml, without the need for adding dimethylsulfoxide (DMS). In some cases, a T-cell epitope polypeptide suitable for inclusion in a composition of the present disclosure is soluble in E1E2 buffer at a concentration of at least 25 μg/ml, at least 30 μg/ml, at least 35 µg/ml, at least 50 μg/ml, at least 75 μg/ml, at least 100 μg/ml, at least 250 μg/ml, at least 500 µg/ml, at least 750 μg/ml, or at least 1 mg/ml.
# Protocol 1 The solubility of the T-cell epitope polypeptides in E1E2 buffer was determined. E1E2 buffer: 10 mM sodium citrate, 250 mM NaCl, 1 mM ethylenediaminetetraacetic acid (EDTA), 0.1% non-ionic detergent TWEEN® 80, pH 6.0. Lyophilized T-cell epitope polypeptides were individually added to E1E2 buffer at a final concentration of 1 mg T-cell epitope polypeptide per ml E1E2 buffer, to generate T-cell epitope polypeptide/E1E2 solutions. The T-cell epitope polypeptide/E1E2 solutions were vortexed for 3 seconds. The T-cell epitope polypeptide/E1E2 solutions were then centrifuged at 10,000×g for 30 seconds. […] After centrifugation, the concentration of peptides was measured using Nanodrop (Thermo Fisher).
# Solubility values shown in FIG. 6 are estimates based on A280 nm reading.
# [2] = TP45+KKK: […] MW= 5066 g/m; EC= 2680
# [3] = TP48: […] MW= 5296 g/m; EC= 6970
# [4] = TP48: […] MW= 5296 g/m; EC= 6970; remark: listed apart in the source
Molecule,Measured Concentration (FIG. 6),Solubility (%) (FIG. 6),other results
KSTKVPAAYAAQGYKVLVLNPSVAATLGFGAYMSK [TP35-NS3],0.797 mg/mL,124%,
CC[C@H](C)[C@H](NC(=O)[C@@H](NC(=O)[C@H](CO)NC(=O)[C@H](CC(=O)O)NC(=O)[C@H](Cc1ccccc1)NC(=O)[C@H](CC(=O)O)NC(=O)CNC(=O)[C@@H](NC(=O)[C@H](Cc1ccccc1)NC(=O)CNC(=O)[C@@H](NC(=O)[C@H](CCSC)NC(=O)[C@H](CC(C)C)NC(=O)[C@H](C)NC(=O)[C@H](CC(=O)O)NC(=O)[C@@H](NC(=O)[C@H](C)NC(=O)[C@@H](NC(=O)[C@@H](NC(=O)[C@@H](NC(=O)[C@@H](NC(=O)[C@H](CC(=O)O)NC(=O)CNC(=O)[C@H](CO)NC(=O)[C@@H](NC(=O)[C@@H]1CCCN1C(=O)[C@@H](NC(=O)[C@@H](NC(=O)[C@H](CO)NC(=O)[C@@H](NC(=O)[C@H](CC(=O)O)NC(=O)[C@H](CC(C)C)NC(=O)CNC(=O)[C@H](CCCNC(=N)N)NC(=O)[C@H](Cc1ccc(O)cc1)NC(=O)[C@H](Cc1ccc(O)cc1)NC(=O)[C@H](C)NC(=O)[C@@H](NC(=O)[C@H](C)NC(=O)[C@H](CC(N)=O)NC(=O)[C@@H](N)CC(C)C)C(C)C)C(C)C)C(C)C)[C@@H](C)CC)[C@@H](C)O)C(C)C)C(C)C)C(C)C)C(C)C)[C@@H](C)O)[C@@H](C)O)[C@@H](C)O)C(C)C)C(=O)N[C@@H](CC(=O)O)C(=O)N[C@@H](CCCCN)C(=O)N[C@@H](CCCCN)C(=O)N[C@@H](CCCCN)C(=O)O [listing 1 of 2 here],,,visible precipitation in E1E2 buffer [1]: precipitation was visible
CC[C@H](C)[C@H](NC(=O)[C@@H](NC(=O)[C@H](CO)NC(=O)[C@H](CC(=O)O)NC(=O)[C@H](Cc1ccccc1)NC(=O)[C@H](CC(=O)O)NC(=O)CNC(=O)[C@@H](NC(=O)[C@H](Cc1ccccc1)NC(=O)CNC(=O)[C@@H](NC(=O)[C@H](CCSC)NC(=O)[C@H](CC(C)C)NC(=O)[C@H](C)NC(=O)[C@H](CC(=O)O)NC(=O)[C@@H](NC(=O)[C@H](C)NC(=O)[C@@H](NC(=O)[C@@H](NC(=O)[C@@H](NC(=O)[C@@H](NC(=O)[C@H](CC(=O)O)NC(=O)CNC(=O)[C@H](CO)NC(=O)[C@@H](NC(=O)[C@@H]1CCCN1C(=O)[C@@H](NC(=O)[C@@H](NC(=O)[C@H](CO)NC(=O)[C@@H](NC(=O)[C@H](CC(=O)O)NC(=O)[C@H](CC(C)C)NC(=O)CNC(=O)[C@H](CCCNC(=N)N)NC(=O)[C@H](Cc1ccc(O)cc1)NC(=O)[C@H](Cc1ccc(O)cc1)NC(=O)[C@H](C)NC(=O)[C@@H](NC(=O)[C@H](C)NC(=O)[C@H](CC(N)=O)NC(=O)[C@@H](N)CC(C)C)C(C)C)C(C)C)C(C)C)[C@@H](C)CC)[C@@H](C)O)C(C)C)C(C)C)C(C)C)C(C)C)[C@@H](C)O)[C@@H](C)O)[C@@H](C)O)C(C)C)C(=O)N[C@@H](CC(=O)O)C(=O)N[C@@H](CCCCN)C(=O)N[C@@H](CCCCN)C(=O)N[C@@H](CCCCN)C(=O)O [listing 2 of 2 here],0.054 mg/mL,8%,
KSTKVPAAYAAQGYKVLVLNPSVAATLGFGAYMSKKKK [TP35-NS3-(Lys)3],0.654 mg/mL,98%,
ILRRHVGPGEGAVQWMNRLIAFASRGNHVSPTHYVPESDASARVTQILKKK [TP48-(Lys)3],0.685 mg/mL,100%,
ILRRHVGPGEGAVQWMNRLIAFASRGNHVSPTHYV [TP35-NS4],,,Solubility (%) (FIG. 12): 64%
CC[C@H](C)[C@H](NC(=O)[C@@H](NC(=O)[C@H](CO)NC(=O)[C@H](CC(=O)O)NC(=O)[C@H](Cc1ccccc1)NC(=O)[C@H](CC(=O)O)NC(=O)CNC(=O)[C@@H](NC(=O)[C@H](Cc1ccccc1)NC(=O)CNC(=O)[C@@H](NC(=O)[C@H](CCSC)NC(=O)[C@H](CC(C)C)NC(=O)[C@H](C)NC(=O)[C@H](CC(=O)O)NC(=O)[C@@H](NC(=O)[C@H](C)NC(=O)[C@@H](NC(=O)[C@@H](NC(=O)[C@@H](NC(=O)[C@@H](NC(=O)[C@H](CC(=O)O)NC(=O)CNC(=O)[C@H](CO)NC(=O)[C@@H](NC(=O)[C@@H]1CCCN1C(=O)[C@@H](NC(=O)[C@@H](NC(=O)[C@H](CO)NC(=O)[C@@H](NC(=O)[C@H](CC(=O)O)NC(=O)[C@H](CC(C)C)NC(=O)CNC(=O)[C@H](CCCNC(=N)N)NC(=O)[C@H](Cc1ccc(O)cc1)NC(=O)[C@H](Cc1ccc(O)cc1)NC(=O)[C@H](C)NC(=O)[C@@H](NC(=O)[C@H](C)NC(=O)[C@H](CC(N)=O)NC(=O)[C@@H](N)CC(C)C)C(C)C)C(C)C)C(C)C)[C@@H](C)CC)[C@@H](C)O)C(C)C)C(C)C)C(C)C)C(C)C)[C@@H](C)O)[C@@H](C)O)[C@@H](C)O)C(C)C)C(=O)N[C@@H](CC(=O)O)C(=O)N[C@@H](CCCCN)C(=O)N[C@@H](CCCCN)C(=O)N[C@@H](CCCCN)C(=O)O [TP45+KKK],,,Solubility | Measured [2]: 200 µg/mL
ILRRHVGPGEGAVQWMNRLIAFASRGNHVSPTHYVKKK [TP35-NS4(Lys)3],,,Solubility (%) (FIG. 12): 107%
ILRRHVGPGEGAVQWMNRLIAFASRGNHVSPTHYVPESDASARVTQIL [TP48],0.328 mg/mL,48%,visible precipitation in E1E2 buffer [1]: precipitation was visible; Solubility | 18.5 h incubation [3]: 90%; Solubility | Measured [4]: 800 µg/mL and 500 µg/mL and 900 µg/mL; Solubility | Percent (%) [4]: 80% and 50% and 90%
GVYLLPRRGPRLGVRATRKTSERSQPRGRRQPIPKARRSEGRSWAQPGYP [TP50-C],0.814 mg/mL,118%,
